PubChem BioAssay (NCI)
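All cell lines were grown in 96-well plates and treated with compound for 48 hours. Here, GI50 denotes the concentration required for 50% inhibition of growth. TGI: concentration producing complete growth inhibition.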

The compounds below were run on NCI-H322M lung (assay: growth of human tumour cells (NCI), 48 h).

Structure (SMILES)	GI50	TGI
COc1ccccc1NC(=O)N/N=C/c1c[nH]c2ccccc12	7.04 µM	21.2 µM
Fc1ccc(N2CC(Cn3c(C(F)(F)F)cc4c(Cl)ncnc43)C2)c(F)c1	10.8 µM	22.7 µM
COc1ccc(S(=O)(=O)Nc2ccc(-c3ccc4c(c3)NC(=O)/C4=C\c3ccc[nH]3)cc2)cc1OC	1.67 µM	31.1 µM
COc1sc(/C=N/NC(=O)c2[nH]c3ccc(Br)cc3c2-c2ccccc2)cc1Br	4.81 µM	> 100 µM
O=C(NN1C(=O)/C(=C/C=C/c2ccc([N+](=O)[O-])o2)SC1=S)c1cccc(O)c1	5.02 µM	17.8 µM
COc1ccc2ncc(C#Cc3cncc(C(=O)Nc4ccc(CN5CCN(C)CC5)c(C(F)(F)F)c4)c3)n2n1	2.7 µM	> 28.3 µM
